{
  "source": "paper PMC4336329",
  "about": "(PLoS ONE, 2015)",
  "note": "Screen size: about 310,000 compounds; about 14,000 (4.5%) showed an effect of 50% or more. The effect is printed as a negative number. The list shows a part of the results.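 Note: peak tail current of the secondary pulse compared with the same well before compound.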",
  "data": [
    {"target": "human ether-à-go-go-related gene (hERG) potassium channel (human, UniProt Q12809)", "sequence (Q12809 whole entry, looked up)": "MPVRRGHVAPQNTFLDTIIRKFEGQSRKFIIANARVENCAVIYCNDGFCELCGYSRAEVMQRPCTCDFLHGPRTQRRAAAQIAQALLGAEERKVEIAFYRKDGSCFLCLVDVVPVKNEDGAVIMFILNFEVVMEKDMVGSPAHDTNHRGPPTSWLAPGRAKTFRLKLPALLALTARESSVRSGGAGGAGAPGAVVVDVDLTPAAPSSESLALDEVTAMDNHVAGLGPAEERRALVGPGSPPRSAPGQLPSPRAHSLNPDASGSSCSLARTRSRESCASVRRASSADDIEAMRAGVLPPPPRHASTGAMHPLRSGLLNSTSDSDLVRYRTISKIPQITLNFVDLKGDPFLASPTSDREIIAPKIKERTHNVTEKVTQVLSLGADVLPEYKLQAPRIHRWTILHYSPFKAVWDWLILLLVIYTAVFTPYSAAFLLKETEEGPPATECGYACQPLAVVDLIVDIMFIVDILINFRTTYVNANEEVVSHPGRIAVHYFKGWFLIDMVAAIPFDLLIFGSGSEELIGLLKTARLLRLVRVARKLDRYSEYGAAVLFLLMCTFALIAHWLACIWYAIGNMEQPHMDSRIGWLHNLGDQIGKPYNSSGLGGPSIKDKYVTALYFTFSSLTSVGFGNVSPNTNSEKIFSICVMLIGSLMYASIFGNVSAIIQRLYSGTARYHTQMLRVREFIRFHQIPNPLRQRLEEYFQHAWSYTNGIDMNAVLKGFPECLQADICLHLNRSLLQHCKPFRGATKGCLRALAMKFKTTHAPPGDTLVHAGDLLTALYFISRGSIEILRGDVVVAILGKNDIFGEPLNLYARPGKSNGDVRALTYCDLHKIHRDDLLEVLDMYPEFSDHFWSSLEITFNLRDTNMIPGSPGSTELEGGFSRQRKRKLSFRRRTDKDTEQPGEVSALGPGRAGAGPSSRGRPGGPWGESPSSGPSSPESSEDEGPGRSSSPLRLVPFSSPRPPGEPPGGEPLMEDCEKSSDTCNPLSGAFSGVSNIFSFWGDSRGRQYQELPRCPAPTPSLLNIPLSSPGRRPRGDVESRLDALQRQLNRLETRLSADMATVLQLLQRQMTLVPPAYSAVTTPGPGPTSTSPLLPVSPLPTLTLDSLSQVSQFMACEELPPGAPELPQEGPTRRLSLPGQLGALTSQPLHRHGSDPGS", "assay": "primary screen, population patch clamp on CHO cells stably expressing hERG", "units": {"hERG current change (%, negative = inhibition) at 10uM": "%"}, "values": [
      {"smiles": "COc1cc(/C=C/C(=O)O)cc(OC)c1OC", "hERG current change (%, negative = inhibition) at 10uM": 3.87},
      {"smiles": "O=C(Nc1nc(-c2ccc(F)cc2)cs1)C1CCCO1", "note": "(centres unmarked)", "hERG current change (%, negative = inhibition) at 10uM": -6.67},
      {"smiles": "Cc1nn(CC(=O)N2CCCCCC2)c(=O)c2cc3occc3n12", "hERG current change (%, negative = inhibition) at 10uM": 14.6},
      {"smiles": "CC(=O)Nc1ccc(S(=O)(=O)Nc2nccc(/C=C/c3ccc(Cl)cc3)n2)cc1", "hERG current change (%, negative = inhibition) at 10uM": -0.102},
      {"smiles": "O=C(Cn1c(SCC(=O)N2CCc3ccccc3C2)nc2ccccc21)NC1CCCC1", "hERG current change (%, negative = inhibition) at 10uM": -26.4},
      {"smiles": "C=CCNC(=O)c1onc(CSc2cc(C)cc(C)c2)c1C(=O)O", "hERG current change (%, negative = inhibition) at 10uM": 8.98},
      {"smiles": "COc1cc2[nH]c(=S)nc(NCc3cccs3)c2cc1OC", "hERG current change (%, negative = inhibition) at 10uM": 10.5},
      {"smiles": "CC(C)C[C@H](NC(=O)C1CC(=O)N(c2ccc3c(c2)OCO3)C1)C(=O)NC1CCCCC1", "note": "(some centres unmarked)", "hERG current change (%, negative = inhibition) at 10uM": 22.4},
      {"smiles": "CCc1cc2c(cc(C(=O)O)n2C)s1", "hERG current change (%, negative = inhibition) at 10uM": 14.6},
      {"smiles": "O=S(=O)(O/N=C1\\CCCc2ccccc21)c1ccccc1", "hERG current change (%, negative = inhibition) at 10uM": 7.59},
      {"smiles": "O=C1NC(=O)/C(=C\\c2ccc(Oc3cnccn3)cc2)S1", "hERG current change (%, negative = inhibition) at 10uM": 2.08},
      {"smiles": "Cc1csc2ncc(C(=O)N3CCCc4ccccc43)c(=O)n12", "hERG current change (%, negative = inhibition) at 10uM": -0.038},
      {"smiles": "COC(=O)/C(=N/Nc1ccccc1Cl)Sc1nnc(C(O)c2ccccc2)n1-c1ccccc1", "note": "(centres unmarked)", "hERG current change (%, negative = inhibition) at 10uM": 16.7},
      {"smiles": "CCOc1ccc(NC(=O)c2ccc(S(=O)(=O)N(C)C)cc2)cc1", "hERG current change (%, negative = inhibition) at 10uM": 16.4},
      {"smiles": "COCCNC(=S)N(CCN(C)C)Cc1cc2cc3c(cc2[nH]c1=O)OCO3", "hERG current change (%, negative = inhibition) at 10uM": 14.9},
      {"smiles": "COc1ccc([N+](=O)[O-])cc1NC(=O)/C=C/C(=O)O", "hERG current change (%, negative = inhibition) at 10uM": 6.18},
      {"smiles": "Cc1ccc(S(=O)(=O)NC(CC(=O)NCc2ccco2)c2ccco2)cc1", "note": "(centres unmarked)", "hERG current change (%, negative = inhibition) at 10uM": -0.749},
      {"smiles": "Cc1nc(SCc2ccc(C#N)cc2)n[nH]1", "hERG current change (%, negative = inhibition) at 10uM": 23.7},
      {"smiles": "CCCOc1ccc(C(=O)OCC(=O)c2c(N)n(C)c(=O)n(C)c2=O)cc1OCC", "hERG current change (%, negative = inhibition) at 10uM": 7.65},
      {"smiles": "CCc1nnc(NS(=O)(=O)c2ccc(NCc3cc(Cl)ccc3O)cc2)s1", "hERG current change (%, negative = inhibition) at 10uM": 8.78},
      {"smiles": "O=C(CNC(c1ccccc1)c1ccccc1)NCc1ccccc1Cl", "hERG current change (%, negative = inhibition) at 10uM": -2.59},
      {"smiles": "Cc1cc(C(=O)OCC(=O)NCc2ccco2)c(C)n1-c1ccc(F)cc1", "hERG current change (%, negative = inhibition) at 10uM": -28.3},
      {"smiles": "O=S(=O)(Nc1ccc(Cl)c(C(F)(F)F)c1)c1cnc[nH]1", "hERG current change (%, negative = inhibition) at 10uM": 10.1},
      {"smiles": "Cl.Clc1ccccc1CNCc1ccncc1", "hERG current change (%, negative = inhibition) at 10uM": -0.497},
      {"smiles": "CCc1cccc(OCCCN2C(=O)NC(C)(C)C2=O)c1", "hERG current change (%, negative = inhibition) at 10uM": 17.9},
      {"smiles": "COc1ccc(CN(C(=O)c2cc3ccccc3oc2=O)C2CCCCC2)cc1OC", "hERG current change (%, negative = inhibition) at 10uM": -32.9},
      {"smiles": "COc1ccccc1N1CCN(C(=O)C(C)NC(=O)c2cccc([N+](=O)[O-])c2)CC1", "note": "(centres unmarked)", "hERG current change (%, negative = inhibition) at 10uM": -29.1},
      {"smiles": "CCCOC(=O)C1=C(C)NC2=C(C(=O)C(C(=O)OC)C(C)C2)C1c1ccc(N(CC)CC)cc1", "note": "(centres unmarked)", "hERG current change (%, negative = inhibition) at 10uM": -5.21},
      {"smiles": "CC(C)CNC(=O)c1oc2ccccc2c1COc1ccccc1", "hERG current change (%, negative = inhibition) at 10uM": 7.05},
      {"smiles": "Cc1[nH]c2ccccc2c1N=Nc1ccc(F)cc1", "hERG current change (%, negative = inhibition) at 10uM": 7.73},
      {"smiles": "CSc1ncccc1C(=O)OCc1nc2ccsc2c(=O)[nH]1", "hERG current change (%, negative = inhibition) at 10uM": 1.57},
      {"smiles": "Cc1nnc(-c2cccc(C(F)(F)F)c2)nc1N1CCOCC1", "hERG current change (%, negative = inhibition) at 10uM": -74.1},
      {"smiles": "Cn1cccc1C(=O)N1CCN(S(=O)(=O)c2ccccc2)CC1", "hERG current change (%, negative = inhibition) at 10uM": 1.24},
      {"smiles": "COc1ccc(CCNC(=O)c2cc(S(=O)(=O)N3CCCCC3)c[nH]2)cc1OC", "hERG current change (%, negative = inhibition) at 10uM": -11.9},
      {"smiles": "O=C(CSc1n[nH]c(-c2ccncc2)n1)NC1CCS(=O)(=O)C1", "note": "(centres unmarked)", "hERG current change (%, negative = inhibition) at 10uM": 4.14},
      {"smiles": "Cc1ccc(C(=O)CSc2nc(C)cc(=O)[nH]2)cc1", "hERG current change (%, negative = inhibition) at 10uM": 6.03},
      {"smiles": "CN(C)CCCOC(=O)CCc1ccccc1.Cl", "hERG current change (%, negative = inhibition) at 10uM": 3.74},
      {"smiles": "Cc1nc2c(c(C)c1C#N)C(=O)c1ccccc1-2", "hERG current change (%, negative = inhibition) at 10uM": 1.58},
      {"smiles": "CC1=C(C(=O)N2CCOCC2)C(c2ccccc2F)C2=C(CCCC2=O)N1", "note": "(centres unmarked)", "hERG current change (%, negative = inhibition) at 10uM": 14.3},
      {"smiles": "CCN1CC(CN(C)Cc2cn(-c3ccc(C)cc3)nc2-c2ccc(F)cc2)CC1=O", "note": "(centres unmarked)", "hERG current change (%, negative = inhibition) at 10uM": -35.1},
      {"smiles": "CCCCN(C(=O)/C=C/c1ccco1)c1c(N)n(CCC)c(=O)[nH]c1=O", "hERG current change (%, negative = inhibition) at 10uM": 11.3},
      {"smiles": "Cc1cc(C)c(C)c(S(=O)(=O)NCc2ccco2)c1C", "hERG current change (%, negative = inhibition) at 10uM": -14.5},
      {"smiles": "CCO/C=C1/C(=O)N(C(C)=O)c2ccccc21", "hERG current change (%, negative = inhibition) at 10uM": 24.3},
      {"smiles": "O=C(Cn1c(=O)sc2ccccc21)Nc1ccccc1", "hERG current change (%, negative = inhibition) at 10uM": 6.95},
      {"smiles": "CSc1oc(-c2ccccc2)nc1C(N)=O", "hERG current change (%, negative = inhibition) at 10uM": -3.56},
      {"smiles": "Cc1ccc(NC(=O)COC(=O)C2CCN(c3ccc(C(F)(F)F)cn3)CC2)cc1C", "hERG current change (%, negative = inhibition) at 10uM": 9.77},
      {"smiles": "CCOc1ccc(NC(=O)C2CCCN(c3nn4c(=O)cc(C)nc4s3)C2)cc1", "note": "(centres unmarked)", "hERG current change (%, negative = inhibition) at 10uM": -7.14},
      {"smiles": "Cc1cccc(OCc2nnc(SCC(=O)Nc3cc(C)on3)n2C)c1", "hERG current change (%, negative = inhibition) at 10uM": -0.112},
      {"smiles": "Cc1nc2ccccc2c(=O)n1Nc1cccc(Cl)c1", "hERG current change (%, negative = inhibition) at 10uM": -7.49},
      {"smiles": "COc1ccc(Cl)cc1-c1nc(SCC(N)=O)n[nH]1", "hERG current change (%, negative = inhibition) at 10uM": 16},
      {"smiles": "Cc1c(C(=O)NN)nn(-c2ccc(Cl)cc2)c(=O)c1C#N", "hERG current change (%, negative = inhibition) at 10uM": 6.96},
      {"smiles": "CCc1ccc(NC(=S)NC2CC3CCCC(C2)N3Cc2ccccc2)cc1", "note": "(centres unmarked)", "hERG current change (%, negative = inhibition) at 10uM": -70.9},
      {"smiles": "Cc1ccc(NC(=O)C(C)OC(=O)CCNS(=O)(=O)c2ccc(C)cc2)cc1", "note": "(centres unmarked)", "hERG current change (%, negative = inhibition) at 10uM": -16.5},
      {"smiles": "COc1ccc(C2C(C(=O)c3ccco3)=C(O)C(=O)N2CCN2CCOCC2)c(OC)c1", "note": "(centres unmarked)", "hERG current change (%, negative = inhibition) at 10uM": 25.1},
      {"smiles": "S=C(NC1CC1)N1CCN(C(=S)NC2CC2)CC1", "hERG current change (%, negative = inhibition) at 10uM": 18.2},
      {"smiles": "Nc1ccccc1C(=O)OCC(=O)c1ccc2c(c1)OCCO2", "hERG current change (%, negative = inhibition) at 10uM": 21.5},
      {"smiles": "Cn1c(=O)c2c(nc(CN3CCC(C(N)=O)CC3)n2CCc2ccccc2)n(C)c1=O", "hERG current change (%, negative = inhibition) at 10uM": 4.44},
      {"smiles": "CCCS(=O)(=O)N1CCC(C(=O)Oc2ccc(OC)cc2)CC1", "hERG current change (%, negative = inhibition) at 10uM": 21.7},
      {"smiles": "Cc1cc(C(=O)CSc2nn3c(=O)c(C(C)(C)C)nnc3s2)c(C)n1-c1ccc(F)cc1", "hERG current change (%, negative = inhibition) at 10uM": -7.43}
    ]}
  ]
}
